Measurements: the supplement of paper PMC3334620
Over roughly 33,000 sequences, “E-score (-0.5 to 0.5)” has its median near -0.016; the highest 2% begin near 0.32. This is one part of the list.

Target: T1, Stp1 (UniProt B3LFK1)
T1 sequence: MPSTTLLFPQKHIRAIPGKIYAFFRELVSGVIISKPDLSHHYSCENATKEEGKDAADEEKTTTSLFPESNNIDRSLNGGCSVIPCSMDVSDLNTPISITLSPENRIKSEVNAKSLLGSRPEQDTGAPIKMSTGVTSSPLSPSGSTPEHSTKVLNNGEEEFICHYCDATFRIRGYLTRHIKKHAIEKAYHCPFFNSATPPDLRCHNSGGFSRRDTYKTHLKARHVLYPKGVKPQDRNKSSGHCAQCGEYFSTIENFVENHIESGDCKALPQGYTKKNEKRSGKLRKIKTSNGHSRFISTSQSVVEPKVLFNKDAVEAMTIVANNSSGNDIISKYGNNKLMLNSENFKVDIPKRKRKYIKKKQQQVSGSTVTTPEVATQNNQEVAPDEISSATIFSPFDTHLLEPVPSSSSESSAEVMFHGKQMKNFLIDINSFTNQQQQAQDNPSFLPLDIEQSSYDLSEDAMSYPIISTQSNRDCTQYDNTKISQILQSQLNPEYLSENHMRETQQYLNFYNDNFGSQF
Assay: PBM E-score (8-mer binding enrichment) (E-score (-0.5 to 0.5)); higher = stronger / more preferred TF binding; most listed sequences are background and not binding sites
Details: protein concentration: 200 nM; construct: GST-full length
Protocol: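 Universal 'all 10-mer' protein binding microarrays (Agilent AMADID 015681) probed with GST-tagged S. cerevisiae TFs (full-length or DBD) made by in vitro transcription/translation (PURExpress), about 100-200 nM. Bound TF was detected with fluorescent anti-GST. Each ungapped 8-mer (which stands for itself and its reverse complement) is scored by the PBM enrichment score (E-score), a modified Wilcoxon-Mann-Whitney statistic from -0.5 to +0.5, computed with the Universal PBM Analysis Suite. Scale: above 0.35 generally sequence-specific binding.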

| Sequence | PBM E-score |
| --- | --- |
| CAGAGCAA | -0.0443 |
| CCGGAACC | -0.154 |
| TGCTGCAA | 0.105 |
| CCGACCAG | -0.144 |
| CTACTCGC | -0.0788 |
| ATAGGTGA | -0.197 |
| GATTATAC | 0.179 |
| AAGCCAGG | -0.219 |
| ATCCCCGC | 0.0142 |
| GCCCATAC | -0.0603 |
| AAATCTAT | 0.169 |
| GGATTTAA | 0.0769 |
| ACCGGAAA | -0.188 |
| CTGTGATC | -0.0819 |
| TGGCGGAA | -0.223 |
| TCCCCCAA | -0.311 |
| CATACGTC | -0.138 |
| AGTGAACC | 0.00324 |
| CACGAAAG | 0.106 |
| ACCGCGCC | 0.3 |
| GTCTTAAA | -0.0945 |
| CAGAAGTC | -0.192 |
| TATAGCAA | -0.0711 |
| GACTGTCA | -0.0708 |
| CAAGGGAA | 0.0744 |

| Sequence | PBM E-score |
| --- | --- |
| CTTTAATC | 0.0789 |
| CTGTCCCC | -0.364 |
| GACACCAA | 0.0295 |
| CGCCGGAA | 0.109 |
| AACCTTGA | -0.0386 |
| ACCGGCCT | -0.0369 |
| ATAAGACC | -0.103 |
| CAGCCAGC | -0.244 |
| CGCCCTAA | -0.084 |
| ATAATCTA | 0.053 |
| GGCGTCCC | 0.0235 |
| AAGGGTGT | -0.152 |
| AGATTAAT | 0.00922 |
| CCCACGGA | 0.00496 |
| ATGGTACG | 0.18 |
| GGTCTCAC | -0.159 |
| AACGAGAG | -0.0987 |
| TAGAGCTA | -0.174 |
| AATACGGA | 0.173 |
| GGCGCCTA | 0.362 |
| CTTTGTTC | 0.134 |
| CGAACTTC | -0.0192 |
| CATGATAG | -0.0255 |
| CCTTGCTC | -0.0614 |
| CAAAGCGA | 0.00981 |

| Sequence | PBM E-score |
| --- | --- |
| ATGCACAC | 0.148 |
| AATTCGTG | 0.161 |
| CCGTTCCG | 0.318 |
| CGATGTAC | -0.0264 |
| AAGGACGG | -0.0585 |
| ACAAGCAA | 0.0867 |
| CAGCCTGC | -0.088 |
| CTAAGCGC | -0.0206 |
| AACCGTAA | 0.0882 |
| GTCTGAAA | 0.0495 |
| CAGATTAA | 0.0924 |
| CTCGGACC | -0.161 |
| GAATAATC | 0.0692 |
| ACCCCAGA | -0.33 |
| AGCTGCCG | 0.222 |
| ACCCGCCA | -0.171 |
| AGACCCAG | -0.295 |
| GTCTACAA | -0.0248 |
| TTCGGCAA | 0.088 |
| CAGATGCG | 0.00161 |
| AACTTCGG | -0.0905 |
| CGCAACGA | 0.131 |
| ATTTCAGA | 0.044 |
| GTTTCATA | -0.0643 |
| AGCCCTCA | -0.218 |

| Sequence | PBM E-score |
| --- | --- |
| GCCCGTAC | 0.0884 |
| CCACAAAC | 0.0354 |
| CGTTCCAA | 0.167 |
| TAAGAAAA | 0.0953 |
| GGTCCCCA | -0.199 |
| GTTGAACA | -0.00185 |
| AAACTAGG | 0.0829 |
| CTCAAAAA | 0.00023 |
| AAAGGGAC | -0.055 |
| ATTTCGGG | -0.172 |
| ACGCTCAT | -0.187 |
| CGCTACGC | -0.027 |
| GGTCTGCA | -0.154 |
| CTCTGTCA | 0.021 |
| CCTAGTGA | -0.135 |
| ATTCAGAC | -0.0444 |
| CGTTTTTA | 0.0924 |
| GGGCATAC | -0.00074 |
| CTAAAGGC | 0.0474 |
| ACCGGGTC | -0.219 |
| CGGCGTAG | 0.335 |
| ACATTTAC | 0.07 |
| ACAATTGC | 0.0595 |
| CTACGATC | -0.115 |
| ACTCGACA | 0.00404 |

| Sequence | PBM E-score |
| --- | --- |
| CTTTATAA | 0.0982 |
| ACTGGTAT | -0.0959 |
| CCATTTCG | -0.154 |
| GACTCGGA | -0.185 |
| GGGCGCCA | 0.309 |
| CCACCCTA | -0.161 |
| CTTACTTC | -8e-05 |
| CGAAAGTA | -0.059 |
| GGTCTGAC | -0.202 |
| CTGTCCAA | 0.0223 |
| CTCGGTTA | -0.119 |
| ACGGAAGG | -0.181 |
| CACCTGGA | -0.138 |
| TCTTGTAA | 0.177 |
| ATCCTGGG | -0.144 |
| CCATTTAG | -0.00669 |
| AACATAAC | 0.115 |
| CCGATTAG | -0.03 |
| GCGTGCCC | 0.0203 |
| GAAAGGTA | -0.0491 |
| AGATGCTG | -0.163 |
| CCCCGAGC | -0.191 |
| CTCCGGGC | -0.307 |
| TCAAGCCA | -0.0664 |
| CTATCAAA | -0.0777 |

| Sequence | PBM E-score |
| --- | --- |
| GATGCTCC | -0.147 |
| AAAAACCC | -0.0397 |
| CTAGTGTA | 0.00887 |
| GCAGCTGC | 0.133 |
| TCGGCGCA | 0.243 |
| CCTACGAG | -0.0232 |
| CCTAGAGA | -0.17 |
| GTTGTGCA | -0.214 |
| ATGTACTC | -0.0367 |
| ACCCAATG | -0.194 |
| ACGGCATC | 0.48 |
| GTTTTTGA | 0.123 |
| CCCACCCG | -0.194 |
| AACTTCGT | 0.00971 |
| ACCTTATC | -0.137 |
| AGCCTCAA | -0.0893 |
| GCCTTCTA | 0.0559 |
| CCGGTGGC | 0.00746 |
| AAGACGGT | -0.169 |
| CTCCGCTC | -0.0143 |
| ATTACCCG | -0.0176 |
| ATGCTTCC | -0.0691 |
| GTTAGCGA | 0.0822 |
| AAGGAATC | -0.032 |
| ACAGGCAG | -0.134 |

| Sequence | PBM E-score |
| --- | --- |
| ACACCTGA | -0.0687 |
| CTCCGGTA | -0.104 |
| AAAGTCTG | -0.115 |
| CACTGACA | 0.021 |
| CATCAATG | 0.139 |
| CTGTTCAC | -0.0791 |
| TCAGCTCA | -0.0224 |
| GCGCAGGA | -0.207 |
| CTTCTATA | 0.0369 |
| CATACGAG | 0.101 |
| AATACCCT | -0.0653 |
| CCTTACCC | -0.151 |
| AAAAGCCC | -0.145 |
| AGTGAGGA | -0.0438 |
| AAAGCTTG | -0.0577 |
| GGGTTCTA | -0.299 |
| AACCTGGG | -0.226 |
| GCAAAGTA | 0.0607 |
| TCCCCACA | -0.298 |
| TTAACTAA | 0.211 |
| CCCGCACA | 0.0598 |
| AAGGTTGT | 0.0917 |
